# In the supplement of paper PMC10127200:
# The highest values were mostly taken out for another list; the other results follow.
# Tested on: OVCAR4
# Test: Euclidean distance of Cell Painting phenotypic profile (signed KS, 77 features) to DMSO centroid (dimensionless distance); higher = stronger phenotypic change vs DMSO (phenoactivity)
# Settings: 48 h; 5 or 10 uM (library dependent)
# How it was run: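 Five cancer lines and a healthy fibroblast line received library compounds at 10 or 5 uM (library-dependent, 0.1% DMSO final) for 48 h. Stained cells were imaged confocally at 20X (9 fields/well). Harmony extracted 77 features, each scored as a signed Kolmogorov-Smirnov statistic against same-plate vehicle wells. Profiles were plate-position corrected, correlation-weighted and replicate-averaged at the top dose. Phenoactivity is the Euclidean distance from each profile to the median vehicle profile.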
row,SMILES,Euclidean distance
1,CCC(C)C(C(=O)OCC[N+](C)(CC)CC)c1ccccc1 (stereo not given) [Valethamate Bromide],2.44
2,Cc1ccc(C(=O)NCCCCCC(=O)Nc2ccccc2N)cc1,2.04
3,Cc1ccccc1-n1c(Cn2nc(-c3cccc(O)c3)c3c(N)ncnc32)nc2cccc(C)c2c1=O,2.15
4,CCOc1cc(NC(C)=O)ccc1C(=O)OC [Ethopabate],1.71
5,CN1C2CCC1CC(OC(=O)C(O)c1ccccc1)C2 (stereo not given) [Homatropine Bromide],1.34
